Experimental data: PMC6919601, “Identification of Plasmodium dipeptidyl aminopeptidase allosteric inhibitors by high throughput screening” (PLoS ONE, 2019)
Hit rate of the full screen: of about 110,000 compounds, about 230 (0.21%) showed an effect of 50% or more. Some of the results follow.

molecular target: DPAP1 (Plasmodium falciparum, UniProt Q8IIJ9); assay: primary screen, percent inhibition; read by cleavage of a fluorogenic dipeptide substrate; higher = more effect of the substance; design: species or system P. falciparum D10 trophozoite lysates; single well
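Also: 30 min substrate incubation versus DMSO and 10 µM JCP410 controls.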

DPAP1, sequence (Q8IIJ9 whole entry, looked up): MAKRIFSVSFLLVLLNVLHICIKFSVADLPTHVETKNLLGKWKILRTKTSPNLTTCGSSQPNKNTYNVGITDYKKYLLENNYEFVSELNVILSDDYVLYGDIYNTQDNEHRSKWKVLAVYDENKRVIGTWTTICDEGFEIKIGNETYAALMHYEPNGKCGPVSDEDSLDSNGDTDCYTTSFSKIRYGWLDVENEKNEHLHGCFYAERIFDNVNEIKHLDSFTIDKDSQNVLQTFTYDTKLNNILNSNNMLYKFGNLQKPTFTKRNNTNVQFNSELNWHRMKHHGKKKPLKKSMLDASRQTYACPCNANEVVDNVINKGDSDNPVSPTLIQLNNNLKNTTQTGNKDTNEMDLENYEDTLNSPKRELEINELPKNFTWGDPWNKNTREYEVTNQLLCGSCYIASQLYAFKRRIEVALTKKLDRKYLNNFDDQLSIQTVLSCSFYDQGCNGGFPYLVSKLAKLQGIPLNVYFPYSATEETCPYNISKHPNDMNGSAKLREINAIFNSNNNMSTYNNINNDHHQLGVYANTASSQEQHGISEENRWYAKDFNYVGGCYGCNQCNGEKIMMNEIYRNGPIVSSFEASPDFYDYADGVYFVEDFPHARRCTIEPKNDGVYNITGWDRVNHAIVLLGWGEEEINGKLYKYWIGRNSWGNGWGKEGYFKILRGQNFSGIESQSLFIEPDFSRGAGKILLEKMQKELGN

| Compound | % Inhibition @ 10 uM [%] |
| --- | --- |
| C=CCn1c(S)nnc1-c1ccccc1 | -5.11 |
| CC(C)(C)c1cc(C(=O)O)c(C(C)(C)C)s1 | -1.04 |
| CCn1c2ccccc2c2ccc(C3C(C#N)=C(N)OC4=C3C(=O)CCC4)cc21 (centres unmarked) | -6.51 |
| O=C(NCCSCc1ccccc1)c1ccc(CN2CCOCC2)cc1 | 4.65 |
| N#CCNC(=O)c1nn2c(C(F)(F)F)cc(-c3cccs3)nc2c1Br | -2.67 |
| O=C1c2ccccc2C(=O)N1Cc1cccnc1 | -0.171 |
| CC1(C)CC(=O)C2=C(C1)OC(N)=C(C#N)C2c1ccco1 (centres unmarked) | -0.197 |
| O=C(NCc1ccccc1)c1cc2nc(-c3cccs3)cc(C(F)(F)F)n2n1 | -3.27 |
| Cc1c(CN2CCN(c3ccc([N+](=O)[O-])cc3)CC2)c(=O)n(-c2ccccc2)n1C | -2.02 |
| Cc1ccc(Cc2c(C)nc3c(C(=O)NC4CCCc5ccccc54)cnn3c2C)cc1 (centres unmarked) | 2.79 |
| CC1CC(C)CN(C(=O)Cn2ncc3ccc(Cl)cc32)C1 (centres unmarked) | 0.596 |
| CO/C(O)=C1/C(C)=NC2=C(C(=O)CC(C)(C)C2)C1c1ccc(Cl)cc1 (centres unmarked) | -1.56 |
| Cc1nc2c(c(C)nn2C)c(C)c1CCC(=O)NCc1ccc(Cl)cc1 | -4.24 |
| Cc1ccc(S(=O)Cc2nc(-c3ccc(C(=O)NC4CCCC4)cc3)oc2C)cc1 (centres unmarked) | -2.4 |
| CC1(C(=O)O)CCC(C(=O)Nc2ccc(Nc3ccccc3)cc2)C1(C)C (centres unmarked) | -0.0217 |
| CC1=C(C)CC(C(=O)Nc2ccc(C)c(C)c2)C(C(=O)O)C1 (centres unmarked) | -3.87 |
| O=[N+]([O-])c1ccc(S(=O)(=O)N2CCN(c3cccc(Cl)c3)CC2)cc1 | -3.26 |
| Cc1ccc2c(c1)-c1onc(C(=O)Nc3cccc(C)n3)c1CO2 | 1.14 |
| Cc1cc(C(=O)NCc2ccccc2Cl)c2c(C)nn(-c3ccccc3Cl)c2n1 | 3.55 |
| N#CCNC(=O)C(Cc1ccc(OC(=O)OCc2ccccc2)cc1F)NC(=O)OCc1ccccc1 (centres unmarked) | -1.41 |
| CC12CCCCN1CCCc1c2[nH]c2ccccc12 (centres unmarked) | 0.746 |
| COc1ccc(-n2nc3c(N4CCC(C(=O)NC(C)c5ccccc5)CC4)nnc(C)c3c2C)cc1 (centres unmarked) | -0.518 |
| CC(C)c1ccc(-c2c(N(C)C3CCCCC3)c(=O)c2=O)cc1 | 2.78 |
| CC(C)CC(C(=O)NCC#N)c1cccc(-c2ccc(S(=O)(=O)NC(C)CN(C)C)cc2)c1 (centres unmarked) | 1.7 |
| Cc1ccccc1Nc1nc(N)c2ccccc2n1 | -0.872 |

| Compound | % Inhibition @ 10 uM [%] |
| --- | --- |
| O=C(Nc1nc2ccccc2n1CCN1CCOCC1)C(F)(F)F | 7.15 |
| COc1cccc(OC)c1C(=O)Nc1cccc(C(C)=O)c1 | -1.42 |
| CC(C)(C)C(=O)c1cn(CC(=O)NCCOc2ccc(Cl)cc2)c2ccccc12 | 1.72 |
| Cc1ccc(S(=O)(=O)Nc2ccc(S(=O)(=O)N3CCCC3)cc2)cc1 | 1.64 |
| Cc1ccc(S(=O)(=O)NC(C)C(=O)Nc2ccc(OCc3ccccc3)cc2)cc1 (centres unmarked) | 9.79 |
| C=CCNC(=O)CN(Cc1ccc(Cl)cc1)S(=O)(=O)c1ccc(Br)cc1 | -3.45 |
| O=C(Cn1nc(Cc2ccncc2)c2ccccc2c1=O)NCCN1CCOCC1 | 0.44 |
| COc1ccc(/C(O)=C/C=N/c2cccc(C)c2C)cc1OC | 3.05 |
| COc1ccc(N(CC(=O)Nc2ccc(C(C)C)cc2)S(C)(=O)=O)cc1 | -0.185 |
| Cc1csc(NC(=O)c2c(-c3c(Cl)cccc3Cl)noc2C)n1 | 0.408 |
| COc1cc(C(=O)N2CCN(Cc3ccc4ccccc4c3)CC2)cc(OC)c1OC | -5.85 |
| COc1ccc(C2C3=C(O)CCCC3=Nc3nc(SC)nn32)cc1Br (centres unmarked) | 6.36 |
| O=C(CSc1nnc(CCCO)n1-c1ccccc1)NCC(=O)c1ccccc1 | 4.57 |
| O=C1C2C(c3ccccc3)C=CC(c3ccccc3)C2C(=O)N1Cc1ccccc1 (centres unmarked) | -3.48 |
| O=C(Nc1ccc2nc(S)sc2c1)c1ccccc1 | -0.0648 |
| CCn1c(N2CCN(C(C)=O)CC2)nc2c1c(=O)[nH]c(=O)n2C | 5.53 |
| CCOc1ccc(CNC(=O)C2CCN(S(=O)(=O)N(CC(C)C)CC(C)C)CC2)cc1OC | 0.514 |
| CCOc1ccc(C(=O)Nc2cc3c(cc2C(C)=O)OCO3)cc1 | 2.03 |
| Fc1ccccc1-n1cc(-c2ccccc2)nc1S | 45.3 |
| CCCC1CC(c2csc(N)n2)CCO1 (centres unmarked) | -5.47 |
| COc1ccc(/C(O)=C/C=N/Cc2ccc(F)cc2)cc1 | 4 |
| CCOc1ccc(NCC(=O)Nc2ccc(C)cc2)cc1 | 9.33 |
| CC(C)C[C@H](NC(=O)c1ccc(-c2csc(Nc3ccncc3)n2)cc1)C(=O)NCCN(CC(C)C)CC(C)C | -2.35 |
| Cc1nn(C(=O)CCC(=O)O)c2ccccc12 | -5.32 |
| O=C(Nc1ccc(Br)cc1)c1ccc(CSc2ncccn2)cc1 | 0.843 |

| Compound | % Inhibition @ 10 uM [%] |
| --- | --- |
| CC(C)(C)C1CCc2c(sc(NC(=O)Cn3nnc(-c4cccs4)n3)c2C#N)C1 (centres unmarked) | 1.76 |
| CCN(CC)S(=O)(=O)c1cccc(C(=O)Nc2cccc(C(=O)O)c2)c1 | -0.807 |
| Cn1ncc2c(N(Cc3ccccc3)Cc3ccccc3)ncnc21 | 3.04 |
| COc1ccc(CNc2oc(C)nc2C#N)cc1 | 3.8 |
| CC(c1ccccc1)N1CSC2=C(C#N)C(c3ccc(Cl)cc3)CC(=O)N2C1 (centres unmarked) | 73.1 |
| COc1ccc(S(=O)(=O)N(C)CC(=O)NC2CCCCC2)cc1 | 1.02 |
| O=C(Nc1ccc(Oc2ccc(Cl)cc2)cc1)c1ccco1 | 7.35 |
| CCOC(=O)c1c(C)[nH]c(C)c1S(=O)(=O)NCCCc1ccccc1 | -4.02 |
| COc1cccc2c1Oc1nc(-c3ccc(Cl)cc3)nc(O)c1C2 | -4.68 |
| C/N=C1\S/C(=C\c2cccn2-c2cccc(Br)c2)C(=O)N1C | 2.48 |
| N#CC1=C(N)Oc2cc(O)c(Cl)cc2C1c1cccnc1 (centres unmarked) | 3.54 |
| CCC(CO)/N=C1\CC(C)(C)CC(O)=C1C(=O)CCCN1C(=O)c2ccccc2C1=O (centres unmarked) | 0.9 |
| O=c1cccc2n1C[C@H]1C[C@@H]2CN(Cc2cccs2)C1 | 1.54 |
| COc1cc(C(=O)Nc2cc(-c3ccccc3)no2)cc(OC)c1OC | -1.47 |
| CC(=O)NC(c1ccccc1)n1nnc2ccccc21 (centres unmarked) | 3.16 |
| COc1cccc(C(=O)NC2=NC(=O)CC(CC(C)C)N2)c1 (centres unmarked) | -4.79 |
| CCc1nc2cccnc2n1-c1ccc(C(=O)N2CCN(C3CCCCC3)CC2)cc1 | 8.61 |
| Cc1cc(O)c(C2=NCCSC(c3ccccn3)C2)c(=O)o1 (centres unmarked) | 1.66 |
| CSc1ccc(C2Oc3ccccc3C3=C2C(c2cccs2)n2ncnc2N3)cc1 (centres unmarked) | 3.32 |
| CC1CCC(N2CCN(Cc3ccccc3)CC2)C1 (centres unmarked) | -3.5 |
| CCOC(=O)c1sc(NCCc2c[nH]c3ccc(OC)cc23)nc1-c1ccccc1 | 2.31 |
| CCC(=O)NCc1nc2ccccc2n1Cc1c(F)cccc1Cl | -13.6 |
| CC1=CC2=NC(=O)/C(=C\c3cn(Cc4ccc5c(c4)OCO5)c4ccccc34)C(=N)N2O1 | 2 |
| COC(=O)c1ccccc1NC(=O)c1cccs1 | -9.83 |
| Cc1ccc(C)c(N(CC(=O)N2CCCC2)S(=O)(=O)c2ccccc2)c1 | -4.06 |

| Compound | % Inhibition @ 10 uM [%] |
| --- | --- |
| COc1ccccc1NC(=O)CCSc1nc2ccccc2s1 | -5.63 |
| CC1=CC(C)(C)N2C(=O)C(=O)c3c(C)ccc1c32 | -2.88 |
| CCOc1cc2c(cc1OCC)C1C(C(=O)N(C)C3CCCCC3)c3ccccc3C(=O)N1CC2 (centres unmarked) | 2.97 |
| CCOC(=O)C1=C(CN2CCC(N3CCCCC3)CC2)NC(=O)NC1c1ccc(OC(C)C)cc1 (centres unmarked) | -2.83 |
| Cc1nc2ccccc2c2oc(C(=O)NCCCN3CCCC3=O)cc12 | -0.0115 |
| N#CC1=C(N)OC2=C(C(=O)CCC2)C1c1ccc(Br)o1 (centres unmarked) | -4.84 |
| CN(C)CCCN(C/C=C/c1ccc(N(C)C)cc1)CCCN(C)C | 3.24 |
| Cc1nc2scc(C)n2c(=O)c1S(=O)(=O)NCCN1CCOCC1 | 1.72 |
| CCn1ncc(C2=NOC(C(=O)Nc3cc(C)nn3-c3ccccc3)C2)c1C (centres unmarked) | -6.68 |
| CC(C)(CN)C12CC3CC(CC(C3)C1)C2 | 1.62 |
| CC(C)(C)NC(=O)c1cc2nc3c(c(C(F)(F)F)n2n1)CCc1ccccc1-3 | -0.362 |
| O=C(c1cc2ccccc2c(=O)s1)N1CCOCC1 | -8.99 |
| Cc1nc2c3ccccc3n(CCc3ccccc3)c2s1 | -6.94 |
| Cc1ccccc1Cn1c(C(=O)O)c(CNC2CCCC(C)C2C)c2ccccc21 (centres unmarked) | 6.41 |
| Cc1ccc(C2C(C#N)=C(N)OC3=C2C(=O)CCC3)o1 (centres unmarked) | -5.94 |
| CC1(C)CC(=O)C2=C(C1)N1C(=C(C#N)C2c2cccnc2)N=C(N)c2c1sc1c2CCCCC1 (centres unmarked) | -2.39 |
| COCCNS(=O)(=O)c1cc(-c2cc(C)no2)ccc1C | -3.75 |
| O=C(Cn1c2ccccc2c2cnnc(O)c21)NCCCN1CCc2ccccc2C1 | 1.38 |
| COc1cccc(N2C(=O)CC(N3CCN(c4ccc(Cl)cc4)CC3)C2=O)c1 (centres unmarked) | -4.68 |
| CN(C)c1ccc(-c2nc3cc(NC(=O)COc4ccccc4)ccc3o2)cc1 | -9.4 |
| Cc1ccc(C(C)C)c(OCC(=O)Nc2ccc(S(=O)(=O)N3CCCCC3)cc2)c1 | 3.53 |
| C=Cc1ccc(Cn2c(C)c(CNCc3cccs3)c(C(=O)O)c2C)cc1 | -5.49 |
| CC(C)C[C@H](NC(=O)N1CCCC1C)C(=O)NCC#N (some centres unmarked) | 4.33 |
